The other results are listed elsewhere or left out. At the low end of the ranking the order means little.

This assay addresses GST-SBP-SLBP (stem-loop binding protein) (UniProt Q14493). As to the kind of experiment: targeted RNA Bind-n-Seq.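 Further: DESeq read counts versus GST-SBP nonspecific binding control pulldown.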 Conditions: RBNS binding buffer: 25 mM Tris pH 7.5, 150 mM KCl, 3 mM MgCl2, 0.1% Tween, 0.5 mg/mL BSA, 1 mM DTT; 27 nM protein, 750 pM RNA pool; temperature not stated; high values mean tight binding.
Take “GGUCACGUCUCAAUCAACUCUUCUCCCAGGGAAAUCCCUGGCUUAUUCAACAGCUCGCAGUCAAG”: the binding signal (log2 fold change) is -0.0502.
In the case of “GGUCACGUCUCAAUCAACUCAUUUUCCAGGGAAAACCCUGGCUUUUUCAACAGCUCGCAGUCAAG”, the binding signal (log2 fold change) was 0.00695.
For the sequence “GGUCACGUCUCAAUCAACUCUCAAGAGGGGGGGAAAACCCCUUUGCCCUCACACUCAACAGCUCGCAGUCAAG”, the binding signal (log2 fold change) was 0.00523.
For the sequence “GGUCACGUCUCAAUCAACUCUAUCCCCAGGGAAAACCCUGGUUUAUUCAACAGCUCGCAGUCAAG”, the binding signal (log2 fold change) is -0.165.
As to “GGUCACGUCUCAAUCAACUCAACUCCCAGGGAAAGCCCUGGUAAUCUCAACAGCUCGCAGUCAAG”, the binding signal (log2 fold change) is -0.0822.
The value for “GGUCACGUCUCAAUCAACUCUUCGCCCAGGGAAACCCCUGGUAAUUUCAACAGCUCGCAGUCAAG” was -0.151; that for “GGUCACGUCUCAAUCAACUCAUCCCCCAGGGAAAGCCCUGGCAUAUUCAACAGCUCGCAGUCAAG” was 0.104.
For “GGUCACGUCUCAAUCAACUCUACUUCCAGGGAAAGCCCUGGCUAUGUCAACAGCUCGCAGUCAAG”, the binding signal (log2 fold change) was -0.35.
Take “GGUCACGUCUCAAUCAACUCUAUUUCAGGAGUUUACUCCUGUUAUCUCAACAGCUCGCAGUCAAG”: the binding signal (log2 fold change) is -0.0356.
For the sequence “GGUCACGUCUCAAUCAACUCUUACGAGGGGGGGAAAACCCCUUUGCCCUCAAUCUCAACAGCUCGCAGUCAAG”, the binding signal (log2 fold change) was 0.194.
On to “GGUCACGUCUCAAUCAACUCUUCCUCAGGAGUUUUCUCCUGUAUACUCAACAGCUCGCAGUCAAG”, for which the binding signal (log2 fold change) was -0.128.
In the case of “GGUCACGUCUCAAUCAACUCAUCCUCCAGGGAAAUCCCUGGUAAAUUCAACAGCUCGCAGUCAAG”, the binding signal (log2 fold change) turned out to be 0.0699.
For “GGUCACGUCUCAAUCAACUCAUCUUCCAGGGAAAUCCCUGGUAUAUUCAACAGCUCGCAGUCAAG”, the binding signal (log2 fold change) came out at 0.125.
With “GGUCACGUCUCAAUCAACUCAUCCUCCAGGGAAAGCCCUGGCUUUCUCAACAGCUCGCAGUCAAG”, the binding signal (log2 fold change) amounted to 0.287.
Consider “GGUCACGUCUCAAUCAACUCUAUGUCAGGAGUUUACUCCUGUUUUCUCAACAGCUCGCAGUCAAG”, for which the binding signal (log2 fold change) is -0.0412.
“GGUCACGUCUCAAUCAACUCAACUUCCAGGGAAAUCCCUGGCUUACUCAACAGCUCGCAGUCAAG”: the binding signal (log2 fold change) is -0.131.
In the case of “GGUCACGUCUCAAUCAACUCUACUUCAGGAGUUUACUCCUGCUAUUUCAACAGCUCGCAGUCAAG”, the binding signal (log2 fold change) was -0.0533.
For “GGUCACGUCUCAAUCAACUCCGCAGAGGGGGGGAAAACCCCUUUACCCUCAACAUCAACAGCUCGCAGUCAAG”, the binding signal (log2 fold change) was -0.0352.
With “GGUCACGUCUCAAUCAACUCUCUAGAGGGGGGGAAAACCCCUUUGCCCUCCAUAUCAACAGCUCGCAGUCAAG”, the binding signal (log2 fold change) worked out at 0.0573.
The value for “GGUCACGUCUCAAUCAACUCUUCUCCAGGAGUUUACUCCUGUUUACUCAACAGCUCGCAGUCAAG” was 0.0333; that for “GGUCACGUCUCAAUCAACUCAUCCUCAGGAGUUUACUCCUGCUAUCUCAACAGCUCGCAGUCAAG” was 0.0238.
The value for “GGUCACGUCUCAAUCAACUCUUCUCCCAGGGAAAGCCCUGGUAUUCUCAACAGCUCGCAGUCAAG” was -0.184.
Turning to “GGUCACGUCUCAAUCAACUCAUACGAGGGGGGGAAAACCCCUUUGCCCUCAACAUCAACAGCUCGCAGUCAAG”, the binding signal (log2 fold change) was determined as 0.15.
“GGUCACGUCUCAAUCAACUCUUAAGAGGGGGGGAAAACCCCUUUGCCCUCACUUUCAACAGCUCGCAGUCAAG”: the binding signal (log2 fold change) is -0.00531.
As for “GGUCACGUCUCAAUCAACUCUAUGUCAGGAGUUUCCUCCUGUUUAUUCAACAGCUCGCAGUCAAG”, the binding signal (log2 fold change) is -0.0552.
For “GGUCACGUCUCAAUCAACUCUUCCUCAGGAGUUUACUCCUGCAAACUCAACAGCUCGCAGUCAAG” the value was -0.0934; for “GGUCACGUCUCAAUCAACUCAGUCUCAGGAGUUUACUCCUGUUUAUUCAACAGCUCGCAGUCAAG”, 0.0622.
With “GGUCACGUCUCAAUCAACUCCCAAGAGGGGGGGAAAACCCCUUUACCCUCAAUUUCAACAGCUCGCAGUCAAG”, the binding signal (log2 fold change) is -0.0978.
As to “GGUCACGUCUCAAUCAACUCCUUAGAGGGGGGGAAAACCCCUUUACCCUCCAAUUCAACAGCUCGCAGUCAAG”, the binding signal (log2 fold change) was -0.0478.
The value for “GGUCACGUCUCAAUCAACUCAUAAGAGGGGGGGAAAACCCCUUUACCCUCAAUAUCAACAGCUCGCAGUCAAG” was -0.44.
As for “GGUCACGUCUCAAUCAACUCAACUUCCAGGGAAAACCCUGGCAUACUCAACAGCUCGCAGUCAAG”, the binding signal (log2 fold change) turned out to be 0.287.
“GGUCACGUCUCAAUCAACUCAUUUUCAGGAGUUUUCUCCUGUAUUUUCAACAGCUCGCAGUCAAG”: the binding signal (log2 fold change) is -0.262.
As to “GGUCACGUCUCAAUCAACUCUAUUUCAGGAGUUUCCUCCUGUUAAUUCAACAGCUCGCAGUCAAG”, the binding signal (log2 fold change) was -0.0965.
As to “GGUCACGUCUCAAUCAACUCAAACGAGGGGGGGAAAACCCCUUUACCCUCAUAAUCAACAGCUCGCAGUCAAG”, the binding signal (log2 fold change) stood at 0.0835.
With “GGUCACGUCUCAAUCAACUCAUAAGAGGGGGGGAAAACCCCUUUGCCCUCAUAAUCAACAGCUCGCAGUCAAG”, the binding signal (log2 fold change) was -0.02.
For “GGUCACGUCUCAAUCAACUCUUCGGCAGGAGUUUACUCCUGGAAUCUCAACAGCUCGCAGUCAAG” the value was 0.0554; for “GGUCACGUCUCAAUCAACUCAUUUCCAGGAGUUUUCUCCUGUAUUUUCAACAGCUCGCAGUCAAG”, 0.0649; for “GGUCACGUCUCAAUCAACUCAUCCUCAGGAGUUUUCUCCUGUUAUCUCAACAGCUCGCAGUCAAG”, 0.128.
“GGUCACGUCUCAAUCAACUCAUUUCCCAGGGAAAGCCCUGGUUUACUCAACAGCUCGCAGUCAAG”: the binding signal (log2 fold change) was -0.0348.
Turning to “GGUCACGUCUCAAUCAACUCUCAAGAGGGGGGGAAAACCCCUUUACCCUCACUUUCAACAGCUCGCAGUCAAG”, the binding signal (log2 fold change) is -0.131.
With “GGUCACGUCUCAAUCAACUCAUUCCCCAGGGAAACCCCUGGUAUUCUCAACAGCUCGCAGUCAAG”, the binding signal (log2 fold change) is -0.0589.
With “GGUCACGUCUCAAUCAACUCUAUCGCAGGAGUUUCCUCCUGGUAAUUCAACAGCUCGCAGUCAAG”, the binding signal (log2 fold change) was -0.00293.
For “GGUCACGUCUCAAUCAACUCAUCCUCCAGGGAAAUCCCUGGCAUUUUCAACAGCUCGCAGUCAAG” the value was 0.00639.
With “GGUCACGUCUCAAUCAACUCUUCCUCAGGAGUUUCCUCCUGUAUAUUCAACAGCUCGCAGUCAAG”, the binding signal (log2 fold change) is 0.126.
The value for “GGUCACGUCUCAAUCAACUCAUCCGCAGGAGUUUUCUCCUGGAAAUUCAACAGCUCGCAGUCAAG” was -0.0219; that for “GGUCACGUCUCAAUCAACUCUUCUCCCAGGGAAACCCCUGGCAUAUUCAACAGCUCGCAGUCAAG” was -0.126; that for “GGUCACGUCUCAAUCAACUCUAUCUCCAGGGAAACCCCUGGUUUUCUCAACAGCUCGCAGUCAAG” was 0.0543.

These data come from article PMC5892938.
